# This is one part of the list.
# Columns and labels:
# Assay in all cases: glycan array binding signal (z-score within array); higher = stronger binding
# Settings in all cases: glycan notation: IUPAC condensed, linker removed
# Neu5Ac(a2-3)GalNAc = target: Neu5Ac(a2-3)GalNAc
# Procedure, shortened: (§1)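 Arrays were curated from the Consortium for Functional Glycomics database, 3228 in total, and kept only where the protein sequence was available. Binding is expressed as a within-array Z-score. This score was averaged across arrays of the same protein sequence at different concentrations or buffers and across linkers, and negative values can be read as non-binding.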
# [1] = target: Neu5Ac(a2-3)GalNAc(b1-4)GlcNAc
# Procedure, shortened: as §1
# [2] = target: Neu5Ac(a2-3)[GalNAc(b1-4)]Gal(b1-4)Glc
# Procedure, shortened: as §1
# [3] = target: Neu5Ac(a2-3)[GalNAc(b1-4)]Gal(b1-4)GlcNAc
# Procedure, shortened: as §1
# [4] = target: Neu5Ac(a2-3)[GalNAc(b1-4)]Gal(b1-4)GlcNAc(b1-3)GalNAc
# Procedure, shortened: as §1
# [5] = target: Neu5Ac(a2-3)[Neu5Ac(a2-6)]GalNAc
# Procedure, shortened: as §1
# Neu5Ac(a2-6)Gal = target: Neu5Ac(a2-6)Gal
# Procedure, shortened: as §1
# [6] = target: Neu5Ac(a2-6)Gal(b1-3)GlcNAc(b1-3)[Gal(b1-4)GlcNAc(b1-6)]Gal(b1-4)Glc
# Procedure, shortened: as §1
# Neu5Ac(a2-6)Gal(b1-4)Glc = target: Neu5Ac(a2-6)Gal(b1-4)Glc
# Procedure, shortened: as §1
# [7] = target: Neu5Ac(a2-6)Gal(b1-4)GlcNAc
# Procedure, shortened: as §1
# [8] = target: Neu5Ac(a2-6)Gal(b1-4)GlcNAc(b1-2)Man
# Procedure, shortened: as §1
# [9] = target: Neu5Ac(a2-6)Gal(b1-4)GlcNAc(b1-2)Man(a1-3)Man(b1-4)GlcNAc(b1-4)GlcNAc
# Procedure, shortened: as §1
# [10] = target: Neu5Ac(a2-6)Gal(b1-4)GlcNAc(b1-2)Man(a1-3)[Gal(b1-4)GlcNAc(b1-2)Man(a1-6)]Man(b1-4)GlcNAc(b1-4)GlcNAc
# Procedure, shortened: as §1
# [11] = target: Neu5Ac(a2-6)Gal(b1-4)GlcNAc(b1-2)Man(a1-3)[GlcNAc(b1-2)Man(a1-6)]Man(b1-4)GlcNAc(b1-4)GlcNAc
# Procedure, shortened: as §1
# [12] = target: Neu5Ac(a2-6)Gal(b1-4)GlcNAc(b1-2)Man(a1-3)[GlcNAc(b1-4)][Neu5Ac(a2-6)Gal(b1-4)GlcNAc(b1-2)Man(a1-6)]Man(b1-4)GlcNAc(b1-4)GlcNAc
# Procedure, shortened: as §1
# [13] = target: Neu5Ac(a2-6)Gal(b1-4)GlcNAc(b1-2)Man(a1-3)[Man(a1-6)]Man(b1-4)GlcNAc(b1-4)GlcNAc
# Procedure, shortened: as §1
# [14] = target: Neu5Ac(a2-6)Gal(b1-4)GlcNAc(b1-2)Man(a1-3)[Neu5Ac(a2-3)Gal(b1-4)GlcNAc(b1-2)Man(a1-6)]Man(b1-4)GlcNAc(b1-4)GlcNAc
# Procedure, shortened: as §1
# [15] = target: Neu5Ac(a2-6)Gal(b1-4)GlcNAc(b1-2)Man(a1-3)[Neu5Ac(a2-6)Gal(b1-4)GlcNAc(b1-2)Man(a1-6)]Man(b1-4)GlcNAc(b1-4)GlcNAc
# Procedure, shortened: as §1
# [16] = target: Neu5Ac(a2-6)Gal(b1-4)GlcNAc(b1-2)Man(a1-3)[Neu5Ac(a2-6)Gal(b1-4)GlcNAc(b1-2)Man(a1-6)]Man(b1-4)GlcNAc(b1-4)[Fuc(a1-6)]GlcNAc
# Procedure, shortened: as §1
# [17] = target: Neu5Ac(a2-6)Gal(b1-4)GlcNAc(b1-2)Man(a1-6)Man(b1-4)GlcNAc(b1-4)GlcNAc
# Procedure, shortened: as §1
# [18] = target: Neu5Ac(a2-6)Gal(b1-4)GlcNAc(b1-2)Man(a1-6)[Gal(b1-4)GlcNAc(b1-2)Man(a1-3)]Man(b1-4)GlcNAc(b1-4)GlcNAc
# Procedure, shortened: as §1
# [19] = target: Neu5Ac(a2-6)Gal(b1-4)GlcNAc(b1-2)Man(a1-6)[GlcNAc(b1-2)Man(a1-3)]Man(b1-4)GlcNAc(b1-4)GlcNAc
# Procedure, shortened: as §1
# [20] = target: Neu5Ac(a2-6)Gal(b1-4)GlcNAc(b1-2)Man(a1-6)[Man(a1-3)]Man(b1-4)GlcNAc(b1-4)GlcNAc
# Procedure, shortened: as §1
# [21] = target: Neu5Ac(a2-6)Gal(b1-4)GlcNAc(b1-2)[Neu5Ac(a2-6)Gal(b1-4)GlcNAc(b1-4)]Man(a1-3)[GlcNAc(b1-4)][Neu5Ac(a2-6)Gal(b1-4)GlcNAc(b1-2)[Neu5Ac(a2-6)Gal(b1-4)GlcNAc(b1-6)]Man(a1-6)]Man(b1-4)GlcNAc(b1-4)GlcNAc
# Procedure, shortened: as §1
# [22] = target: Neu5Ac(a2-6)Gal(b1-4)GlcNAc(b1-2)[Neu5Ac(a2-6)Gal(b1-4)GlcNAc(b1-4)]Man(a1-3)[GlcNAc(b1-4)][Neu5Ac(a2-6)Gal(b1-4)GlcNAc(b1-4)Man(a1-6)]Man(b1-4)GlcNAc(b1-4)GlcNAc
# Procedure, shortened: as §1
# [23] = target: Neu5Ac(a2-6)Gal(b1-4)GlcNAc(b1-2)[Neu5Ac(a2-6)Gal(b1-4)GlcNAc(b1-6)]Man(a1-6)[Neu5Ac(a2-6)Gal(b1-4)GlcNAc(b1-2)Man(a1-3)][GlcNAc(b1-4)]Man(b1-4)GlcNAc(b1-4)GlcNAc
# Procedure, shortened: as §1
# [24] = target: Neu5Ac(a2-6)Gal(b1-4)GlcNAc(b1-3)Gal(b1-3)GlcNAc
# Procedure, shortened: as §1
# [25] = target: Neu5Ac(a2-6)Gal(b1-4)GlcNAc(b1-3)Gal(b1-4)GlcNAc
# Procedure, shortened: as §1
# [26] = target: Neu5Ac(a2-6)Gal(b1-4)GlcNAc(b1-3)Gal(b1-4)GlcNAc(b1-2)Man(a1-3)[Neu5Ac(a2-6)Gal(b1-4)GlcNAc(b1-3)Gal(b1-4)GlcNAc(b1-2)Man(a1-6)]GalNAc
# Procedure, shortened: as §1
# [27] = target: Neu5Ac(a2-6)Gal(b1-4)GlcNAc(b1-3)Gal(b1-4)GlcNAc(b1-3)Gal(b1-4)GlcNAc
# Procedure, shortened: as §1
# [28] = target: Neu5Ac(a2-6)Gal(b1-4)GlcNAc(b1-3)Gal(b1-4)GlcNAc(b1-3)Gal(b1-4)GlcNAc(b1-2)Man(a1-3)[Neu5Ac(a2-6)Gal(b1-4)GlcNAc(b1-3)Gal(b1-4)GlcNAc(b1-3)Gal(b1-4)GlcNAc(b1-2)Man(a1-6)]GalNAc
# Procedure, shortened: as §1
# [29] = target: Neu5Ac(a2-6)Gal(b1-4)GlcNAc(b1-3)Gal(b1-4)GlcNAc(b1-3)GalNAc
# Procedure, shortened: as §1
# [30] = target: Neu5Ac(a2-6)Gal(b1-4)GlcNAc(b1-3)Gal(b1-4)GlcNAc(b1-3)[Neu5Ac(a2-6)Gal(b1-4)GlcNAc(b1-3)Gal(b1-4)GlcNAc(b1-6)]GalNAc
# Procedure, shortened: as §1
# [31] = target: Neu5Ac(a2-6)Gal(b1-4)GlcNAc(b1-3)Gal(b1-4)GlcNAc(b1-6)[Gal(b1-3)]GalNAc
# Procedure, shortened: as §1
# [32] = target: Neu5Ac(a2-6)Gal(b1-4)GlcNAc(b1-3)Gal(b1-4)[Fuc(a1-3)]GlcNAc(b1-3)Gal(b1-4)[Fuc(a1-3)]GlcNAc
# Procedure, shortened: as §1
# [33] = target: Neu5Ac(a2-6)Gal(b1-4)GlcNAc(b1-3)GalNAc
# Procedure, shortened: as §1
# [34] = target: Neu5Ac(a2-6)Gal(b1-4)GlcNAc(b1-3)[Neu5Ac(a2-6)Gal(b1-4)GlcNAc(b1-6)]GalNAc
# Procedure, shortened: as §1
# [35] = target: Neu5Ac(a2-6)Gal(b1-4)GlcNAc(b1-6)GalNAc
# Procedure, shortened: as §1
binder,measurement,setting,value
"LSL-150 (Laetiporus sulphureus), Q7Z8V1 (protein) MTDIYIPPEGLYFRLLGFASRQVIFARNSPSPDVGLSPVNDQATDQYFSLIYGTGEHAGLYAIKSKATGKVLFSRRPAEPYVGQIDGDGRYPDNWFKIEPGKTYLSKYFRLVQPSTGTALVSRTHLQPYFWNHPQTEVFDDQYFTFLFEDHHHHHH",glycan array binding signal (z-score),Neu5Ac(a2-3)GalNAc,-0.212
same,glycan array binding signal (z-score),[1],-0.213
same,glycan array binding signal (z-score),[2],-0.21
same,glycan array binding signal (z-score),[3],-0.209
same,glycan array binding signal (z-score),[4],-0.203
same,glycan array binding signal (z-score),[5],-0.208
same,glycan array binding signal (z-score),Neu5Ac(a2-6)Gal,-0.2
same,glycan array binding signal (z-score),[6],-0.199
same,glycan array binding signal (z-score),Neu5Ac(a2-6)Gal(b1-4)Glc,-0.205
same,glycan array binding signal (z-score),[7],-0.205
same,glycan array binding signal (z-score),[8],-0.211
same,glycan array binding signal (z-score),[9],-0.203
same,glycan array binding signal (z-score),[10],-0.202
same,glycan array binding signal (z-score),[11],-0.214
same,glycan array binding signal (z-score),[12],-0.208
same,glycan array binding signal (z-score),[13],-0.198
same,glycan array binding signal (z-score),[14],-0.204
same,glycan array binding signal (z-score),[15],-0.201
same,glycan array binding signal (z-score),[16],-0.208
same,glycan array binding signal (z-score),[17],-0.206
same,glycan array binding signal (z-score),[18],-0.202
same,glycan array binding signal (z-score),[19],-0.213
same,glycan array binding signal (z-score),[20],-0.21
same,glycan array binding signal (z-score),[21],-0.207
same,glycan array binding signal (z-score),[22],-0.208
same,glycan array binding signal (z-score),[23],-0.209
same,glycan array binding signal (z-score),[24],-0.205
same,glycan array binding signal (z-score),[25],-0.079
same,glycan array binding signal (z-score),[26],0.587
same,glycan array binding signal (z-score),[27],1.15
same,glycan array binding signal (z-score),[28],0.848
same,glycan array binding signal (z-score),[29],-0.122
same,glycan array binding signal (z-score),[30],-0.077
same,glycan array binding signal (z-score),[31],-0.202
same,glycan array binding signal (z-score),[32],-0.197
same,glycan array binding signal (z-score),[33],-0.209
same,glycan array binding signal (z-score),[34],-0.202
same,glycan array binding signal (z-score),[35],-0.203

# Reference: the supplement of paper PMC8728848
